Assay results as given in the supplement of paper PMC4604168 (melanoma cell lines).
The other results are listed elsewhere or left out. Repeats are few or missing, and single values can be far off.

Assays:
Test in all cases: cell count relative to DMSO control; melanoma cells; higher = more viable cells
Conditions in all cases: library dose: standard library concentration; 72 h
[1] = system: A101D
[2] = system: A2058
[3] = system: A375
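Also: cells treated in 1,536-well plates, then fixed and DAPI-stained, with nuclei counted from automated high-throughput microscope images.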

Compound | cell count [1] | cell count [2] | cell count [3]
CS(=O)(=O)CCNCc1ccc(-c2ccc3ncnc(Nc4ccc(OCc5cccc(F)c5)c(Cl)c4)c3c2)o1 [lapatinib] + NC(=O)Nc1cc(-c2cccc(F)c2)sc1C(=O)N[C@H]1CCCNC1 [AZD7762] (first compound 4 µM, partner dose 0.1 µM) | 54.5% | 88.8% | 74.5%
C[C@@H](Oc1cc(-c2cnn(C3CCNCC3)c2)cnc1N)c1c(Cl)ccc(F)c1Cl [Crizotinib] + C[C@@H]1CCN(C(=O)CC#N)C[C@@H]1N(C)c1ncnc2[nH]ccc12 [CP690550] (first compound 1 µM, partner dose 5 µM) | 119% | 107% | 104%
CS(=O)(=O)CCNCc1ccc(-c2ccc3ncnc(Nc4ccc(OCc5cccc(F)c5)c(Cl)c4)c3c2)o1 [lapatinib] + C[C@@H]1CCN(C(=O)CC#N)C[C@@H]1N(C)c1ncnc2[nH]ccc12 [CP690550] (first compound 4 µM, partner dose 5 µM) | 78.9% | 104% | 132%
C[C@@H](Oc1cc(-c2cnn(C3CCNCC3)c2)cnc1N)c1c(Cl)ccc(F)c1Cl [Crizotinib] + COc1ccc(Cl)c(Nc2nc3ccccc3nc2NS(=O)(=O)c2cccc(NC(=O)C(C)(C)N)c2)c1 [XL147] (first compound 1 µM, partner dose 4 µM) | 91.9% | 79.5% | 103%
CNC(=O)c1cc(Oc2ccc(NC(=O)Nc3ccc(Cl)c(C(F)(F)F)c3)cc2)ccn1 [sorafenib] + COc1cc(Nc2ncc(F)c(Nc3ccc4c(n3)NC(=O)C(C)(C)O4)n2)cc(OC)c1OC [Tamatinib] (first compound 2 µM, partner dose 2 µM) | 42.7% | 75.4% | 102%
CN1CCN(c2ccc3nc(-c4c(N)c5c(F)cccc5[nH]c4=O)[nH]c3c2)CC1 [Dovitinib] + NCC(=O)Nc1ccc(-n2nc(C(F)(F)F)cc2-c2ccc3c(ccc4ccccc43)c2)cc1 [OSU03012] (first compound 0.5 µM, partner dose 5 µM) | 65% | 29.3% | 64.1%
CN1CCN(c2ccc3nc(-c4c(N)c5c(F)cccc5[nH]c4=O)[nH]c3c2)CC1 [Dovitinib] + CCCS(=O)(=O)Nc1ccc(F)c(C(=O)c2c[nH]c3ncc(Cl)cc23)c1F [PLX4720] (first compound 0.5 µM, partner dose 0.4 µM) | 50.5% | 32.2% | 61.5%
CNC(=O)c1cc(Oc2ccc(NC(=O)Nc3ccc(Cl)c(C(F)(F)F)c3)cc2)ccn1 [sorafenib] + C[C@]1(c2nc3c(C(N)=O)cccc3[nH]2)CCCN1 [Veliparib] (first compound 2 µM, partner dose 7 µM) | 108% | 70.2% | 106%
C[C@@H](Oc1cc(-c2cnn(C3CCNCC3)c2)cnc1N)c1c(Cl)ccc(F)c1Cl [Crizotinib] + CN1CCN(c2ccc3nc(-c4c(N)c5c(F)cccc5[nH]c4=O)[nH]c3c2)CC1 [Dovitinib] (first compound 1 µM, partner dose 0.5 µM) | 67% | 22% | 83%
CN1CCN(c2ccc3nc(-c4c(N)c5c(F)cccc5[nH]c4=O)[nH]c3c2)CC1 [Dovitinib] + O=C(O)[C@@H]1[O][Sb](=[O])([O][Sb]2(=[O])[O][C@H]([C@H](O)CO)[C@H](O)[C@H](C(=O)O)[O]2)[O][C@H]([C@H](O)CO)[C@@H]1O [stibogluconate] (first compound 0.5 µM, partner dose 10 µM) | 70.7% | 24.1% | 62.6%
C=CCNC1=C2C[C@@H](C)C[C@H](OC)[C@H](O)[C@@H](C)/C=C(\C)[C@H](OC(N)=O)[C@@H](OC)/C=C\C=C(/C)C(=O)NC(=CC1=O)C2=O [Tanespimycin] + OCc1c[nH]c2ccccc12 [Indole-3-carbinol] (first compound 0.01 µM, partner dose 4 µM) | 73.9% | 86.8% | 106%
CN1CCN(c2ccc3nc(-c4c(N)c5c(F)cccc5[nH]c4=O)[nH]c3c2)CC1 [Dovitinib] + COc1cc(Nc2ncc(F)c(Nc3ccc4c(n3)NC(=O)C(C)(C)O4)n2)cc(OC)c1OC [Tamatinib] (first compound 0.5 µM, partner dose 2 µM) | 47.2% | 24.7% | 86.5%
CNC(=O)c1cc(Oc2ccc(NC(=O)Nc3ccc(Cl)c(C(F)(F)F)c3)cc2)ccn1 [sorafenib] + COc1ccc(Cl)c(Nc2nc3ccccc3nc2NS(=O)(=O)c2cccc(NC(=O)C(C)(C)N)c2)c1 [XL147] (first compound 2 µM, partner dose 4 µM) | 95.2% | 84.9% | 102%
CNC(=O)c1cc(Oc2ccc(NC(=O)Nc3ccc(Cl)c(C(F)(F)F)c3)cc2)ccn1 [sorafenib] + C=CCNC1=C2C[C@@H](C)C[C@H](OC)[C@H](O)[C@@H](C)/C=C(\C)[C@H](OC(N)=O)[C@@H](OC)/C=C\C=C(/C)C(=O)NC(=CC1=O)C2=O [Tanespimycin] (first compound 2 µM, partner dose 0.01 µM) | 92% | 101% | 88.3%
CNC(=O)c1cc(Oc2ccc(NC(=O)Nc3ccc(Cl)c(C(F)(F)F)c3)cc2)ccn1 [sorafenib] + O=C(O)c1ccc(-c2c[nH]c3ncc(-c4ccccc4)cc23)cc1C1CCCC1 [GSK650394] (first compound 2 µM, partner dose 0.8 µM) | 97.4% | 91.6% | 98.7%
C[C@@H](Oc1cc(-c2cnn(C3CCNCC3)c2)cnc1N)c1c(Cl)ccc(F)c1Cl [Crizotinib] + OCc1c[nH]c2ccccc12 [Indole-3-carbinol] (first compound 1 µM, partner dose 4 µM) | 80.8% | 108% | 81.7%
CN1CCN(c2ccc3nc(-c4c(N)c5c(F)cccc5[nH]c4=O)[nH]c3c2)CC1 [Dovitinib] + Cn1cncc1[C@@](N)(c1ccc(Cl)cc1)c1ccc2c(c1)c(-c1cccc(Cl)c1)cc(=O)n2C [tipifarnib] (first compound 0.5 µM, partner dose 0.05 µM) | 63.1% | 16.4% | 73.1%
CS(=O)(=O)CCNCc1ccc(-c2ccc3ncnc(Nc4ccc(OCc5cccc(F)c5)c(Cl)c4)c3c2)o1 [lapatinib] + CCCS(=O)(=O)Nc1ccc(F)c(C(=O)c2c[nH]c3ncc(Cl)cc23)c1F [PLX4720] (first compound 4 µM, partner dose 0.4 µM) | 68.5% | 77.2% | 148%
CN1CCN(c2ccc3nc(-c4c(N)c5c(F)cccc5[nH]c4=O)[nH]c3c2)CC1 [Dovitinib] + C[C@]1(c2nc3c(C(N)=O)cccc3[nH]2)CCCN1 [Veliparib] (first compound 0.5 µM, partner dose 7 µM) | 70.2% | 25.4% | 56%
CN1CCN(c2ccc3nc(-c4c(N)c5c(F)cccc5[nH]c4=O)[nH]c3c2)CC1 [Dovitinib] + Cn1nnc2c(C(N)=O)ncn2c1=O [temozolomide] (first compound 0.5 µM, partner dose 10 µM) | 63.9% | 27.4% | 76.6%
C[C@@H](Oc1cc(-c2cnn(C3CCNCC3)c2)cnc1N)c1c(Cl)ccc(F)c1Cl [Crizotinib] + C#Cc1cccc(Nc2ncnc3cc(OCCOC)c(OCCOC)cc23)c1 [erlotinib] (first compound 1 µM, partner dose 4 µM) | 65.1% | 74.3% | 88.6%
CS(=O)(=O)CCNCc1ccc(-c2ccc3ncnc(Nc4ccc(OCc5cccc(F)c5)c(Cl)c4)c3c2)o1 [lapatinib] + CC(C)(C)c1cnc(CSc2cnc(NC(=O)C3CCNCC3)s2)o1 [SNS-032] (first compound 4 µM, partner dose 0.05 µM) | 68.8% | 104% | 96.7%
CN1CCN(c2ccc3nc(-c4c(N)c5c(F)cccc5[nH]c4=O)[nH]c3c2)CC1 [Dovitinib] + Clc1ccc(Nc2nnc(Cc3ccncc3)c3ccccc23)cc1 [vatalanib] (first compound 0.5 µM, partner dose 10 µM) | 64.4% | 44.7% | 61.3%
CNC(=O)c1cc(Oc2ccc(NC(=O)Nc3ccc(Cl)c(C(F)(F)F)c3)cc2)ccn1 [sorafenib] + Cc1cc(N2CCOCC2)cc2[nH]c(-c3c(NC[C@@H](O)c4cccc(Cl)c4)cc[nH]c3=O)nc12 [BMS536924] (first compound 2 µM, partner dose 1 µM) | 90.7% | 118% | 140%
CNC(=O)c1cc(Oc2ccc(NC(=O)Nc3ccc(Cl)c(C(F)(F)F)c3)cc2)ccn1 [sorafenib] + OCCn1cc(-c2cnc3nnn(Cc4ccc5ncccc5c4)c3n2)cn1 [PF04217903] (first compound 2 µM, partner dose 5 µM) | 93.7% | 108% | 82.6%
CN1CCN(c2ccc3nc(-c4c(N)c5c(F)cccc5[nH]c4=O)[nH]c3c2)CC1 [Dovitinib] + C=CCn1c(=O)c2cnc(Nc3ccc(N4CCN(C)CC4)cc3)nc2n1-c1cccc(C(C)(C)O)n1 [MK1775] (first compound 0.5 µM, partner dose 0.1 µM) | 58.8% | 26.4% | 62.3%
